This passage reports log2 surviving fraction results from the supplement of paper PMC8047034.

Where a name gives a salt, the structure may show the parent alone. The list shows a part of the results. Many values rest on one well or one pass, so single values are uncertain.

For the test, the system named is OVCAR4. In words: log2 surviving fraction (library drug vs vehicle, or drug + carboplatin vs carboplatin alone; relative to plate median); ovarian cancer lines: OVCAR4 is platinum-sensitive and Ov4Carbo platinum-resistant; higher = more cell survival. The following applies: library drug concentration 10 µM; 7 days; carboplatin co-treatment 0 µM.
For the compound `CCCC(=O)OCOC(=O)C1=C(C)NC(C)=C(C(=O)OC)C1c1cccc(Cl)c1Cl` (stereo unspecified) [Cleviprex (Clevidipine)], the log2 surviving fraction was found to be 0.48. The figure for `C=CCN1CC[C@]23c4c5ccc(O)c4O[C@H]2C(=O)CC[C@@]3(O)[C@H]1C5` [Naloxone HCl] is 1.13.

Regarding `CC(C)(Oc1ccc(Cl)cc1)C(=O)O` [Clofibric acid], the log2 surviving fraction amounted to 0.696. Next, `CCCCCCCCCC(=O)N[C@H]1[C@H](Oc2c3cc4cc2Oc2ccc(cc2Cl)[C@@H](O[C@@H]2O[C@H](CO)[C@@H](O)[C@H](O)[C@H]2NC(C)=O)[C@@H]2NC(=O)[C@H](NC(=O)[C@@H]4NC(=O)[C@H]4NC(=O)[C@@H](Cc5ccc(c(Cl)c5)O3)NC(=O)[C@H](N)c3ccc(O)c(c3)Oc3cc(O)cc4c3)c3ccc(O)c(c3)-c3c(OC4O[C@H](CO)[C@@H](O)[C@H](O)[C@@H]4O)cc(O)cc3[C@@H](C(=O)O)NC2=O)O[C@H](CO)[C@@H](O)[C@@H]1O` (stereo partly specified) [Teicoplanin]: -0.25; `Cc1cc(N)c2ccccc2[n+]1CCCCCCCCCC[n+]1c(C)cc(N)c2ccccc21` [Dequalinium chloride]: -6.89; `C/C(=C(\CCOP(=O)(O)O)SC(=O)c1ccccc1)N(C=O)Cc1cnc(C)nc1N` [Benfotiamine]: 1.35.

For `OC(Cn1cncn1)(Cn1cncn1)c1ccc(F)cc1F` [Fluconazole], the log2 surviving fraction is 0.451. As to `CNCC[C@@H](Oc1ccccc1C)c1ccccc1` [Atomoxetine HCl], the log2 surviving fraction is 0.555. With `Oc1c(Cl)cc(Cl)c2cccnc12` [Chloroxine], the log2 surviving fraction is -0.626. The figure for `COCCOC(=O)C1=C(C)NC(C)=C(C(=O)OC/C=C/c2ccccc2)C1c1cccc([N+](=O)[O-])c1` (stereo unspecified) [Cilnidipine] is -2.42; for `CC(C)c1nc(N(C)S(C)(=O)=O)nc(-c2ccc(F)cc2)c1/C=C/[C@@H](O)C[C@@H](O)CC(=O)O` [Rosuvastatin calcium (Crestor)] it is -1.04. As for `C[N+]1(C)[C@@H]2C[C@@H](OC(=O)[C@H](CO)c3ccccc3)C[C@H]1[C@@H]1O[C@@H]12` [Methscopolamine (Pamine)], the log2 surviving fraction came to 0.409. Next, `CCC1=C(C)CN(C(=O)NCCc2ccc(S(=O)(=O)NC(=O)N[C@H]3CC[C@H](C)CC3)cc2)C1=O` [Glimepiride]: 0.946; `CCOC(=O)CCC(=O)O[C@H]1[C@H](O[C@@H]2[C@@H](C)[C@H](O[C@H]3C[C@@](C)(OC)[C@@H](O)[C@H](C)O3)[C@@H](C)C(=O)O[C@H](CC)[C@@](C)(O)[C@H](O)[C@@H](C)C(=O)[C@H](C)C[C@@]2(C)O)O[C@H](C)C[C@@H]1N(C)C` [Erythromycin Ethylsuccinate]: -0.732. As for `CC[C@H]1OC(=O)[C@H](C)[C@@H](O[C@H]2C[C@@](C)(OC)[C@@H](O)[C@H](C)O2)[C@H](C)[C@@H](O[C@@H]2O[C@H](C)C[C@H](N(C)C)[C@H]2O)[C@](C)(O)C[C@@H](C)CN(C)[C@H](C)[C@@H](O)[C@]1(C)O` [Azithromycin Dihydrate], the log2 surviving fraction came out at 0.214. Regarding `CNC(=O)Oc1ccc2c(c1)[C@]1(C)CCN(C)[C@@H]1N2C` [Physostigmine Salicylate], the log2 surviving fraction is -0.537. Regarding `C[N+](C)(C)CCO.[Cl-]` [Choline Chloride], the log2 surviving fraction was 0.66. Next, `CN1[C@@H]2CC[C@H]1C[C@@H](OC(=O)c1c[nH]c3ccccc13)C2` [Tropisetron]: -0.117. `NCCC(O)(P(=O)(O)O)P(=O)(O)O` [Pamidronate Disodium]: the log2 surviving fraction turned out to be 0.63. With `CC(C)CN(C[C@@H](O)[C@H](Cc1ccccc1)NC(=O)O[C@H]1CCOC1)S(=O)(=O)c1ccc(N)cc1` [Amprenavir (Agenerase)], the log2 surviving fraction was -4.99.

Turning to `CN1C2CCCC1CC(NC(=O)c1nn(C)c3ccccc13)C2` (stereo unspecified) [Granisetron HCl], the log2 surviving fraction was found to be 0.247. Next, `CC1(C)[C@H](C(=O)O)N2C(=O)C[C@H]2S1(=O)=O` [Sulbactam]: -0.964; `CNC[C@H](O)c1ccc(O)c(O)c1` [Epinephrine bitartrate (Adrenalinium)]: -1.01. The figure for `Cc1c(-c2ccc(O)cc2)n(Cc2ccc(OCCN3CCCCCC3)cc2)c2ccc(O)cc12` [Bazedoxifene HCl] is -7.16; for `O=C(C1CCCCC1)N1CC(=O)N2CCc3ccccc3C2C1` (stereo unspecified) [Praziquantel (Biltricide)] it is 0.424; for `CCCc1nc2c(C)cc(-c3nc4ccccc4n3C)cc2n1Cc1ccc(-c2ccccc2C(=O)O)cc1` [Telmisartan (Micardis)] it is -1.27.
